Assay results reported in the supplement of paper PMC4967469.
The IC50 comes from the fitted curve, where viability falls to half of the control; where the fit passes the top or lowest dose, that dose stands as a limit. AUC sums up the same curve from the lowest dose to the 256-fold higher top dose: 1 means no effect, lower means more sensitive. The top dose, if marked as inferred, is not printed in the source and was worked back from the curve model.

compound: CC1=C(C(=O)Nc2cc3cn[nH]c3cc2F)C(c2ccc(C(F)(F)F)cc2)CC(=O)N1 [GSK429286A]; experiment: Viability of human cancer cell lines after 72 h of drug (GDSC screen); settings: top dose inferred
Protocol: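 Human cancer cell lines in 384-well plates, medium with 10% serum, drug for 72 h over a 256-fold dose range (nine 2-fold or five 4-fold steps up to the top dose). Adherent lines were fixed and stained with the nucleic acid dye Syto60, suspension lines read with resazurin; signal relative to control wells, capped at 0 and 100%. One two-parameter sigmoid per drug and line, fitted in a mixed model over all curves with the slope shared within a line.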

Cell Line	AUC	IC50 [µM]
RVH-421 (melanoma, adherent, top dose 20 µM)	0.947	> 20
DMS-114 (small cell lung carcinoma, adherent, top dose 20 µM)	0.98	> 20
TE-8 (oesophagus, adherent, top dose 20 µM)	0.977	> 20
SCC-3 (B-cell lymphoma, suspension, top dose 20 µM)	0.992	> 20
EMC-BAC-1 (lung adenocarcinoma, adherent, top dose 20 µM)	0.94	> 20
DoTc2-4510 (cervix, adherent, top dose 20 µM)	0.981	> 20
EFM-19 (breast, adherent, top dose 20 µM)	0.972	> 20
IGR-1 (melanoma, adherent, top dose 20 µM)	0.987	> 20
SU-DHL-8 (B-cell lymphoma, suspension, top dose 20 µM)	0.816	10.1
HT (B-cell lymphoma, suspension, top dose 20 µM)	0.975	> 20
MOG-G-UVW (glioma, adherent, top dose 20 µM)	0.905	> 20
ST486 (Burkitt lymphoma, suspension, top dose 20 µM)	0.75	5.88
KNS-81-FD (glioma, adherent, top dose 20 µM)	0.962	> 20
SU8686 (pancreas, adherent, top dose 20 µM)	0.986	> 20
KP-N-YS (neuroblastoma, adherent, top dose 20 µM)	0.765	8.36
NCI-H510A (small cell lung carcinoma, semi-adherent, top dose 20 µM)	0.981	> 20
CAL-78 (chondrosarcoma, adherent, top dose 20 µM)	0.986	> 20
H2369 (mesothelioma, adherent, top dose 20 µM)	0.981	> 20
BL-41 (Burkitt lymphoma, suspension, top dose 20 µM)	0.791	6.74
GP5d (large intestine, adherent, top dose 20 µM)	0.991	> 20

Cell Line	AUC	IC50 [µM]
MFM-223 (breast, adherent, top dose 20 µM)	0.979	> 20
COLO-684 (endometrium, suspension, top dose 20 µM)	0.967	> 20
JAR (urogenital system, adherent, top dose 20 µM)	0.964	> 20
ESS-1 (endometrium, adherent, top dose 20 µM)	0.931	> 20
VM-CUB-1 (bladder, adherent, top dose 20 µM)	0.988	> 20
MKN28 (stomach, adherent, top dose 20 µM)	0.982	> 20
SK-MES-1 (lung squamous cell carcinoma, adherent, top dose 20 µM)	0.978	> 20
H2731 (mesothelioma, adherent, top dose 20 µM)	0.956	> 20
SNU-C1 (large intestine, suspension, top dose 20 µM)	0.953	> 20
Hs939-T (melanoma, adherent, top dose 20 µM)	0.986	> 20
KCL-22 (chronic myeloid leukaemia, suspension, top dose 20 µM)	0.944	> 20
DSH1 (bladder, adherent, top dose 20 µM)	0.988	> 20
NCI-H1435 (lung adenocarcinoma, semi-adherent, top dose 20 µM)	0.988	> 20
NB5 (neuroblastoma, adherent, top dose 20 µM)	0.963	> 20
QGP-1 (pancreas, adherent, top dose 20 µM)	0.946	> 20
COLO-668 (small cell lung carcinoma, adherent, top dose 20 µM)	0.921	> 20
SNU-475 (liver, adherent, top dose 20 µM)	0.971	> 20
JSC-1 (B-cell lymphoma, suspension, top dose 20 µM)	0.859	16.3
HPAF-II (pancreas, adherent, top dose 20 µM)	0.981	> 20
LS-513 (large intestine, adherent, top dose 20 µM)	0.987	> 20
